# Results: the BET-seq Pho4 binding data (Le et al. 2018)
# Some of the results follow. These are noisy estimates, calculated here from bound and input reads.
# Target: T1, Pho4 (S. cerevisiae) (UniProt P07270)
# T1 sequence: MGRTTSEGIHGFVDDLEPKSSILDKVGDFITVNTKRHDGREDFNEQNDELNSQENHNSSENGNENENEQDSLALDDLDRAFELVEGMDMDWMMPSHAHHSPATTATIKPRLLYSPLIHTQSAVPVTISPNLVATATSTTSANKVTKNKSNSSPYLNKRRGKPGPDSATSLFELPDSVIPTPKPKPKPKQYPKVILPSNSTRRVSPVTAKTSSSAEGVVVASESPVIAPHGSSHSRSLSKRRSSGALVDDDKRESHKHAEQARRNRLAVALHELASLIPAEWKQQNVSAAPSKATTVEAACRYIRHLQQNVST
# Assay: relative binding free energy (BET-seq); higher = weaker binding
# Conditions: reference: library average
row,Sequence,relative binding free energy
1,AAGGACACGTGCGTGA,0.04 kcal/mol
2,TAAGGCACGTGAGGGA,0.21 kcal/mol
3,GTTTTCACGTGATGGT,0.27 kcal/mol
4,CAGATCACGTGTGTGG,0.24 kcal/mol
5,GAGTTCACGTGTCAGG,0.24 kcal/mol
6,AGTTCCACGTGGTGCG,0 kcal/mol
7,GTAGACACGTGACGTG,0.09 kcal/mol
8,AGGTGCACGTGGCCTG,-0.27 kcal/mol
9,GCTGACACGTGAGTTT,0.45 kcal/mol
10,AGTGACACGTGTCGTG,-0.02 kcal/mol
11,GTGCTCACGTGTCTGG,0.2 kcal/mol
12,TTGATCACGTGTTAGG,0.14 kcal/mol
13,AGTAACACGTGAGCGT,0.15 kcal/mol
14,ATAGCCACGTGGAGGT,-0.08 kcal/mol
15,ATTAGCACGTGTGGCG,-0.08 kcal/mol
16,TTAAACACGTGGGAGT,-0.02 kcal/mol
17,TTGTACACGTGTGAGG,0.31 kcal/mol
18,TGGTTCACGTGGAAGT,0.42 kcal/mol
19,GGTTCCACGTGAGGTG,0.27 kcal/mol
20,AAGTGCACGTGATATA,0.08 kcal/mol
21,GTTCGCACGTGGGAAA,0.01 kcal/mol
22,TTCTGCACGTGGTGTG,-0.05 kcal/mol
23,CTCTTCACGTGAGGTT,0.38 kcal/mol
24,GTTCTCACGTGGTAGA,0.28 kcal/mol
25,CGAAGCACGTGGAGGG,-0.07 kcal/mol
26,AAGGTCACGTGCTAGG,0.19 kcal/mol

row,Sequence,relative binding free energy
1,GTAATCACGTGGATAT,0.16 kcal/mol
2,TAAGGCACGTGACAGG,0.02 kcal/mol
3,CCGTGCACGTGGTGGT,-0.07 kcal/mol
4,GAGGGCACGTGTAATT,0.11 kcal/mol
5,AGTGGCACGTGAGGCA,0.05 kcal/mol
6,TTGTGCACGTGAACGT,0.14 kcal/mol
7,CGAGGCACGTGTTGGA,0.08 kcal/mol
8,TTTGCCACGTGTTGTC,0.06 kcal/mol
9,TCAGGCACGTGGGTGA,-0.28 kcal/mol
10,TTTGACACGTGAAGCT,0.27 kcal/mol
11,TGGAACACGTGTATAT,0.06 kcal/mol
12,TTAAACACGTGGTGGT,-0.05 kcal/mol
13,GGGCACACGTGGGGGT,0.04 kcal/mol
14,ATTTTCACGTGGTCGG,0.19 kcal/mol
15,GGTGGCACGTGCATGC,-0.15 kcal/mol
16,GTGTTCACGTGATACT,0.24 kcal/mol
17,TCTTGCACGTGTAGTA,-0.09 kcal/mol
18,GTTCGCACGTGGGCTG,-0.35 kcal/mol
19,TTGTTCACGTGGTAGA,0.19 kcal/mol
20,TTTTTCACGTGGAAGT,0.27 kcal/mol
21,AGCGTCACGTGGTTTT,0.1 kcal/mol
22,GATAGCACGTGGGTTT,-0.07 kcal/mol
23,AGGTGCACGTGTCAGT,-0.12 kcal/mol
24,ATTGCCACGTGGATTT,-0.04 kcal/mol
25,GAGGGCACGTGAGCTT,0.18 kcal/mol
26,GATGACACGTGTTTGG,0.16 kcal/mol

row,Sequence,relative binding free energy
1,TGTGACACGTGGGCTC,-0.11 kcal/mol
2,TGTGTCACGTGACTGT,0.17 kcal/mol
3,GTTTGCACGTGGACGG,0.1 kcal/mol
4,GTCGTCACGTGGTTGT,0.21 kcal/mol
5,AGTATCACGTGCGGCG,0.05 kcal/mol
6,TCAGTCACGTGAATGG,0.13 kcal/mol
7,TTTATCACGTGAGAAA,0.47 kcal/mol
8,GATTACACGTGGTTCG,0.19 kcal/mol
9,TGTCTCACGTGGCTTT,0.05 kcal/mol
10,ACGGGCACGTGGTATT,-0.25 kcal/mol
11,ATATTCACGTGCGATT,0.15 kcal/mol
12,GTACTCACGTGGGTGA,-0.01 kcal/mol
13,GTTTGCACGTGAGGGC,0.35 kcal/mol
14,GATCGCACGTGTTTGT,0.04 kcal/mol
15,TGGGGCACGTGGGGAC,-0.2 kcal/mol
16,AGAGTCACGTGTGATT,0.14 kcal/mol
17,AAGTCCACGTGGATGG,0.03 kcal/mol
18,GGTTTCACGTGGGATA,0.24 kcal/mol
19,GTTCACACGTGAGGCT,0.45 kcal/mol
20,CGGGTCACGTGTCGTG,0.1 kcal/mol
21,GAGCTCACGTGAGGTT,0.32 kcal/mol
22,AGGAACACGTGGGCTT,-0.06 kcal/mol
23,TTATTCACGTGCGGGT,0.18 kcal/mol
24,CAGGGCACGTGGAGGG,-0.26 kcal/mol
25,TGTCACACGTGGTTAG,0.13 kcal/mol
26,CTTTTCACGTGGGACT,0.26 kcal/mol

row,Sequence,relative binding free energy
1,TTTATCACGTGAGGAT,0.34 kcal/mol
2,ACGGTCACGTGGAGGC,0.1 kcal/mol
3,AATTACACGTGTAGTA,-0.05 kcal/mol
4,TGGCTCACGTGTATTG,0.18 kcal/mol
5,TTGCGCACGTGGGTGT,-0.29 kcal/mol
6,GGTGGCACGTGGCTGT,-0.1 kcal/mol
7,GTGAGCACGTGGCGGC,-0.19 kcal/mol
8,TGATGCACGTGGAGAT,-0.11 kcal/mol
9,GGGGTCACGTGCTGCT,0.1 kcal/mol
10,TTGTTCACGTGTTAAG,0.29 kcal/mol
11,TTTATCACGTGTCTCT,0.13 kcal/mol
12,TCGTGCACGTGTTTAG,0.06 kcal/mol
13,TGTATCACGTGGCCGT,-0.02 kcal/mol
14,TGTAACACGTGGTCGT,-0.2 kcal/mol
15,GTTTTCACGTGGGGGG,0.26 kcal/mol
16,TATCGCACGTGAATGT,0.03 kcal/mol
17,TGTTCCACGTGACGGG,0.23 kcal/mol
18,AGATGCACGTGGGCGT,-0.13 kcal/mol
19,TTCTGCACGTGGTAGG,-0.06 kcal/mol
20,AGTCGCACGTGGGTAT,-0.15 kcal/mol
21,TATGACACGTGATAAT,0.15 kcal/mol
22,AGTCGCACGTGTATTT,0.05 kcal/mol
23,TGTCGCACGTGGGCCG,-0.17 kcal/mol
24,TTGGTCACGTGGTTGA,0.1 kcal/mol
25,TTGAACACGTGTAGAT,0.23 kcal/mol
26,TGGAACACGTGTGGTA,-0.07 kcal/mol

row,Sequence,relative binding free energy
1,ATTGACACGTGATTTT,0.06 kcal/mol
2,TGAGGCACGTGTTATA,-0.14 kcal/mol
3,TTTATCACGTGAGAGT,0.2 kcal/mol
4,CTCGACACGTGGGGTG,-0.04 kcal/mol
5,CTTGTCACGTGCGGAT,0.02 kcal/mol
6,TGCATCACGTGTAAGT,0.22 kcal/mol
7,TGGTCCACGTGTGTCT,0.05 kcal/mol
8,TATCTCACGTGTAGTG,0.14 kcal/mol
9,TTCGGCACGTGGGCTA,-0.11 kcal/mol
10,GGTTGCACGTGCGCTG,-0.08 kcal/mol
11,AGGGGCACGTGACGCG,-0.18 kcal/mol
12,GGCAACACGTGGAGGT,-0.07 kcal/mol
13,GGGGTCACGTGATCGC,0.19 kcal/mol
14,ATTGACACGTGATGTA,0.15 kcal/mol
15,TTCGACACGTGTAGTT,0.09 kcal/mol
16,CGCTTCACGTGTTGGG,0.19 kcal/mol
17,ACGGTCACGTGGCGGA,0.04 kcal/mol
18,GTTGTCACGTGGGGCT,0.01 kcal/mol
19,CATATCACGTGCGTGT,0.06 kcal/mol
20,GGATGCACGTGTTACT,0.11 kcal/mol
21,TGAATCACGTGTTGCT,0.21 kcal/mol
22,TGTCACACGTGGGGAG,-0.12 kcal/mol
23,AGGTACACGTGGTATT,-0.07 kcal/mol
24,AATTACACGTGTCATG,0.2 kcal/mol
25,TTGATCACGTGGAGGG,0.2 kcal/mol
26,TATGTCACGTGGCATA,-0.07 kcal/mol

row,Sequence,relative binding free energy
1,TGGTACACGTGTATAT,0.16 kcal/mol
2,TGATGCACGTGCAGAG,-0.03 kcal/mol
3,GTTAGCACGTGAGGCG,0.31 kcal/mol
4,TGTTACACGTGGCCGT,-0.04 kcal/mol
5,GGAAACACGTGGGGTT,-0.07 kcal/mol
6,TGAAGCACGTGGCATG,-0.07 kcal/mol
7,GTTGCCACGTGAGTTG,0.27 kcal/mol
8,GGAATCACGTGAGGGA,0.25 kcal/mol
9,TTATTCACGTGTAGTG,0.13 kcal/mol
10,AGCTGCACGTGAAGGG,0.41 kcal/mol
11,TTGTACACGTGACTTG,0.12 kcal/mol
12,CGTGTCACGTGTGAGA,0.15 kcal/mol
13,TAGTTCACGTGTCCGG,0.31 kcal/mol
14,AGTTGCACGTGATACG,0.06 kcal/mol
15,ATTTTCACGTGATTCC,0.59 kcal/mol
16,GTCAGCACGTGTGGGC,-0.09 kcal/mol
17,CGTTACACGTGGGTGC,0.02 kcal/mol
18,TGTTTCACGTGAATAG,0.39 kcal/mol
19,TGGGTCACGTGGAGAT,0.22 kcal/mol
20,TAGTGCACGTGAGAGT,0.1 kcal/mol
21,TGGCTCACGTGAGGGG,0.34 kcal/mol
22,GTGCGCACGTGGTGAA,-0.17 kcal/mol
23,TATACCACGTGGTGGA,-0.09 kcal/mol
24,TGTCTCACGTGAGTTT,0.34 kcal/mol
25,ATGGACACGTGATCGG,0.12 kcal/mol
26,ACTGGCACGTGATTGA,0.16 kcal/mol

row,Sequence,relative binding free energy
1,ATGATCACGTGGTGTC,0.08 kcal/mol
2,TGTAACACGTGCGGGG,-0.07 kcal/mol
3,GGCGTCACGTGAGGTG,0.28 kcal/mol
4,GCCGGCACGTGGGGTC,-0.08 kcal/mol
5,GCAGTCACGTGTAGTG,0.1 kcal/mol
6,TGGATCACGTGATGAT,0.5 kcal/mol
7,TGGTACACGTGTTCAT,0.1 kcal/mol
8,TTTTTCACGTGTACTA,0.18 kcal/mol
9,TATGTCACGTGTTGAA,0.09 kcal/mol
10,TTTAGCACGTGCTTAA,-0.12 kcal/mol
11,CGGGTCACGTGGAGGC,0.07 kcal/mol
12,TAACACACGTGGGTGG,-0.12 kcal/mol
13,GTTGTCACGTGTTGCT,0.19 kcal/mol
14,GTGTGCACGTGGTAAG,-0.05 kcal/mol
15,TCTAGCACGTGGAGGC,0.16 kcal/mol
16,GTATGCACGTGTTTCG,0.06 kcal/mol
17,TGAATCACGTGGATGT,0.15 kcal/mol
18,TCGGACACGTGATATT,0.26 kcal/mol
19,GATTTCACGTGGCGTG,0.34 kcal/mol
20,TGTACCACGTGTATGT,-0.01 kcal/mol
21,TGTATCACGTGGCATT,0.13 kcal/mol
22,TTTAGCACGTGTAAAA,0.01 kcal/mol
23,AGTGGCACGTGACTTT,-0.05 kcal/mol
24,TGCTACACGTGTGAGT,0.09 kcal/mol
25,CCGGTCACGTGTGTTG,0.08 kcal/mol
26,GTGGGCACGTGATGAC,0.05 kcal/mol

row,Sequence,relative binding free energy
1,GAGCTCACGTGTTTGT,0.25 kcal/mol
2,TTGGTCACGTGGTGGT,0.05 kcal/mol
3,TAATGCACGTGAAGTA,0.17 kcal/mol
4,CATGTCACGTGCGTTG,0.01 kcal/mol
5,TTTTTCACGTGCTGGT,0.31 kcal/mol
6,GGTGCCACGTGCCGGG,-0.16 kcal/mol
7,AGGTTCACGTGAGAAG,0.43 kcal/mol
8,TTTTTCACGTGGTCAT,0.32 kcal/mol
9,CGGGTCACGTGGGCTC,0.07 kcal/mol
10,GTTTTCACGTGATCTA,0.39 kcal/mol
11,GTAGTCACGTGTAGCA,0.37 kcal/mol
12,GTAACCACGTGCGGGT,0.01 kcal/mol
13,GGGGTCACGTGGTGCA,0.12 kcal/mol
14,ATTTGCACGTGCTAAG,-0.02 kcal/mol
15,ATGAGCACGTGTGTAT,-0.13 kcal/mol
16,GAGGGCACGTGTTTCG,-0.11 kcal/mol
17,ATCGTCACGTGCGTTG,0.17 kcal/mol
18,GTTGTCACGTGACAGG,0.19 kcal/mol
19,GCTGGCACGTGGATTT,0 kcal/mol
20,AGGCGCACGTGTTTGT,-0.11 kcal/mol
21,TTCTGCACGTGGAATT,0 kcal/mol
22,TTTGACACGTGTGTTG,0.04 kcal/mol
23,TTAATCACGTGGGGTT,0.02 kcal/mol
24,TGTATCACGTGCGGAG,0.21 kcal/mol
25,GTTTTCACGTGTTGGG,0.3 kcal/mol
26,GGGTGCACGTGGCGAT,-0.03 kcal/mol

row,Sequence,relative binding free energy
1,ATAAGCACGTGAGTGT,0.12 kcal/mol
2,CTTTTCACGTGATATT,0.21 kcal/mol
3,GCTGTCACGTGGAGGT,0.07 kcal/mol
4,TGGGTCACGTGTTCAG,-0.01 kcal/mol
5,ATTTGCACGTGCGTGT,-0.09 kcal/mol
6,CTGGGCACGTGGGGTG,-0.23 kcal/mol
7,AGGAACACGTGGTTAG,-0.18 kcal/mol
8,AGTAGCACGTGTGGAA,0.03 kcal/mol
9,GGATGCACGTGCGGGC,0.1 kcal/mol
10,TTTATCACGTGGTCAA,0 kcal/mol
11,ATGTTCACGTGACTGG,0.34 kcal/mol
12,TTGATCACGTGCGTTG,0.1 kcal/mol
13,GGTTTCACGTGCGGGT,0.35 kcal/mol
14,GTTGGCACGTGTGGCT,-0.01 kcal/mol
15,GTACTCACGTGGCTGG,0.27 kcal/mol
16,GAAGTCACGTGGCGTG,0.11 kcal/mol
17,GGAGTCACGTGTATGG,0.28 kcal/mol
18,GAGGTCACGTGTCTGA,0.32 kcal/mol
19,CAGGGCACGTGTTAAT,-0.03 kcal/mol
20,TTTGCCACGTGAGGTA,0.08 kcal/mol
21,TGGGCCACGTGGTTGC,-0.24 kcal/mol
22,GATCTCACGTGGTGTG,0.17 kcal/mol
